Target: the molecule itself
Experiment: glycerol gradient sedimentation with western blot

B1: Hfq (FLAG-tagged variant, Salmonella enterica serovar Typhimurium SL1344) (natural protein)
chain: not shown
stoichiometry N: 6
